The labels stand for the following.
B1: CPEB3 Ribozyme (parent)
chain: UAACAGGGGGCCACAGCAGAAGCGUUCACGUCGCAGCCCCUGUCAGAUUCUGGUGAAUCUGCGAAUUCUGCUGUAUAUCUC

The source gives no read counts; variants with many changes may rest on few reads.

This data set covers variants of B1. The data set is described as follows: self-cleavage, relative activity (ratio to wild type); higher = more cleavage; in vitro, sequencing. In short, it runs like this:
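After error-prone PCR and barcoding, CPEB3 ribozyme mutant libraries were transcribed with T7 RNA polymerase at 37°C for 5 hours, then given 15 min with DNase I before an EDTA stop, and they cleaved during both steps. Reverse transcription with template switching preceded Illumina sequencing. Relative activity divides a variant's cleaved/total read fraction by the unmutated ribozyme's. At least 5 reads were required per variant, and three batches were averaged.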
On to UAACAGGGGGCCACAGCAGAAGCGUUCACGACGCAGCCCCUGUCAUAUUCUGGCGAAACUGCGAAUUCUGCCGUAUAUCUC [U31A G46U U54C U58A U72C], for which the self-cleavage worked out at 0.08.

On to UAACAGGGGGCCACAGCAGAAGCGUUCACGACGCAGUCCCUGUCAGAUCCUGGUGAAUCUGCGAAUUCUGCAGUAUACCUC [U31A C37U U49C U72A U78C], for which the self-cleavage worked out at 0.06. For the variant UAACAGGGGGCCACAGCAGAAGCGUUCACGAUGCAGCCCCUGUCAGAUUCUGGUGAAUCUGCGAAAUCUGCUGUAUGUCUC [U31A C32U U66A A77G], the self-cleavage turned out to be 0.1.

On to UAACAGGGGGCCACAGCAGAAGCGUUCACGACACAGCCCCUGUCAGAUUCAGGUGAAUCUGCGAAUUCUGCUGUAUAACUC [U31A G33A U51A U78A], for which the self-cleavage turned out to be 0.18. The figure for UAACAGGGGGCCACAGCAGAAGCGUUCACGACGCAGCCCCUGUCAGUUUCUGGUGAAUCUGCGAAUUCUGCUGCAUAUCUC [U31A A47U U74C] is 0.7. In the case of UAACAGGGGGCCACAGCAGAAGCGUUCACGACGCAGCCCCUGUCAGAUUCCGGUGGAUCUGCGAAUUCUGCUGUAUACCUC [U31A U51C A56G U78C], the self-cleavage was determined as 0.46. On to UAACAGGGGGCCACAGCAGAAGCGUUCACGACGCAGCCCCUGUCAGAUUCUGGUGGAUCCGCGAAUUCUGCUGUAUAUCUC [U31A A56G U60C], for which the self-cleavage was 0.23.

Regarding UAACAGGGGGCCACAGCAGAAGCGUUCACGACGCAGCCCCUGUCAGAUUCUGGUGUAUCUGCGUAUUCUGCUGUAUAUCUC [U31A A56U A64U], the self-cleavage was 0.11. For UAACAGGGGGCCACAGCAGAAGCGUUCACGACGCAGCCCCUGUCAGGUUCUGGUGAAUCUGCGAAUUCUGAUGUAUAUCCC [U31A A47G C71A U80C], the self-cleavage amounted to 0.15.

In the case of UAACAGGGGGCCACAGCAGAAGCGUUCACGACGCAGCCCCUGUUGGAUUCUGGUGACUCUGCGAAUUCUGCUGUAUAUCUC [U31A C44U A45G A57C], the self-cleavage is 0.07.

As to UAACAGGGGGCCACAGCAGAAGCGUUCACGACGCAGCCCCAGUCAGAUUCUGGCGAAUCUGCGAAUUCUGCUGUAUAUCUC [U31A U41A U54C], the self-cleavage came out at 0.17. The figure for UAACAGGGGGCCACAGCAGAAGCGUUCACGACGCAGCCCCUGUCAGAUCCUGGUGAACCUGCGAAUUCGGCUGUAUAUCUC [U31A U49C U58C U69G] is 0.16; for UAACAGGGGGCCACAGCAGAAGCGUUCACGACGCAGCCCCUGUCAGAUCCUGGUGAAUCUACGAAUUCUGCUGUAUAUCUC [U31A U49C G61A] it is 0.13; for UAACAGGGGGCCACAGCAGAAGCGUUCACGACGCAGCCCCUGUCAGAUUCUGGUGAAUCUGCGAGUCCUGCUUUAUACCUC [U31A A65G U67C G73U U78C] it is 0.09.

As for UAACAGGGGGCCACAGCAGAAGCGUUCACGACGCAGCCCCUGUCAGAUUCUGGUGAGUCUGCGAUUUCUGCUGUAUAACAC [U31A A57G A65U U78A U80A], the self-cleavage was 0.11. For UAACAGGGGGCCACAGCAGAAGCGUUCACGACGCAGCCCCUGUCAGAUUUUGGUGAAUCUGUGAAUUCUGCUGUAUAUCUC [U31A C50U C62U], the self-cleavage was 0.19. With UAACAGGGGGCCACAGCAGAAGCGUUCACGACGCAGCCCCUGACGGAUGCUGGUAAAUCUGCGAAUUCUGCUGUAUAUCUC [U31A U43A A45G U49G G55A], the self-cleavage stood at 0.14. Under UAACAGGGGGCCACAGCAGAAGCGUUCACGACGCAGCCCCCGUCGGAUUCUGGUGAAUCUGCGAAUUCUGCUGUAUAUCUC [U31A U41C A45G] stands 0.36. As for UAACAGGGGGCCACAGCAGAAGCGUUCACGAAGCAGCCCCUGUCAGAUUCUGGUGAAUCUGCGGAUUCUGCUGUAUAUCUA [U31A C32A A64G C81A], the self-cleavage is 0.07. In the case of UAACAGGGGGCCACAGCAGAAGCGUUCACGAUGCAGCCCCUGUCAGAUUCUGGUGAAUCUGCGGAUUCUGCUGUAUAUCUC [U31A C32U A64G], the self-cleavage was found to be 0.44. For UAACAGGGGGCCACAGCAGAAGCGUUCACGACGCAGCCCCUGUCAGAUUCUCGUGAAUCUGCGAAUUCUGCCGUACAUCUC [U31A G52C U72C U76C], the self-cleavage is 0.92. Regarding UAACAGGGGGCCACAGCAGAAGCGUUCACGACGCAGCCCCUGUCAGAUUCUGGUGAAUAUACGAAUUCUGCUGUAUAUCUC [U31A C59A G61A], the self-cleavage stood at 0.12.

As for UAACAGGGGGCCACAGCAGAAGCGUUCACGACGCAGCCCCUGUCAGACUCCGGUGAAUCCGCGAAUUCUGCUGUAUAUCUC [U31A U48C U51C U60C], the self-cleavage is 0.07.

UAACAGGGGGCCACAGCAGAAGCGUUCACGACGCAGCCCCUGCUAGAGUCUGGUUAAUCUGCGAAUUCUGCUGUAUAUCUC [U31A U43C C44U U48G G55U]: the self-cleavage came out at 0.18. Turning to UAACAGGGGGCCACAGCAGAAGCGUUCACGACGCAGCCCCAGUCAGAUUCUGGUGAAUCCGCGAAUUCUGCUGUAUAUCUC [U31A U41A U60C], the self-cleavage turned out to be 0.19. Turning to UAACAGGGGGCCACAGCAGAAGCGUUCACGACGCAGCCCCUGUCAGACUCGGGUGAAUCUGCGGAUUCUGCUGUAUACCUC [U31A U48C U51G A64G U78C], the self-cleavage came out at 0.07. Turning to UAACAGGGGGCCACAGCAGAAGCGUUCACGACACAGCCCCUGUCUGAUUCUGGUGAAUCUGCGAAUUCUGCUGUAUAUCUC [U31A G33A A45U], the self-cleavage stood at 0.16.

UAACAGGGGGCCACAGCAGAAGCGUUCACGACGUAGCCCCAGUCAGAUUCUGGUGAAUCUGCGUAUUCUGCUGUAUAUCUC [U31A C34U U41A A64U]: the self-cleavage turned out to be 0.09. Regarding UAACAGGGGGCCACAGCAGAAGCGUUCACGACGCAGCCCCUGUCAGAUUCUGGUGAAUCUGCGGAUUCUGCUGUAUAUCCC [U31A A64G U80C], the self-cleavage was found to be 0.41. Regarding UAACAGGGGGCCACAGCAGAAGCGUUCACGACGCAGCCCCCGUCAGAUUCUGAUGAAUCUGCGAAUUCUGCUGUAUAUCUC [U31A U41C G53A], the self-cleavage amounted to 0.32. Under UAACAGGGGGCCACAGCAGAAGCGUUCACGACGCAGCCCCCGUCAGAUUCUGGUGAAUCUGCGAACUCUGCUGUAUAUCUC [U31A U41C U66C] stands 0.68; under UAACAGGGGGCCACAGCAGAAGCGUUCACGACGCAGCCCCUGUCAGACUCUGGUGAAUCUGCGAAUUCUGCUGUAUAUCCC [U31A U48C U80C], 0.54; under UAACAGGGGGCCACAGCAGAAGCGUUCACGACGCAGCCCCUGUCAGAUUCAGGUGAAUCUGCGAAUUCUGCUGUAUAUCUU [U31A U51A C81U], 0.52. In the case of UAACAGGGGGCCACAGCAGAAGCGUUCACGACGCAGCCCCUGCCAGAUGCUGCUGAAUCUGCGAAUUCUGCUGUAUAUCUC [U31A U43C U49G G53C], the self-cleavage worked out at 0.1.

The record behind these values is the RNAGym collection of RNA variant scans (doi:10.1093/nar/gkz1192).
